# Hit rate of the full screen: of about 350,000 compounds, about 9,900 (2.8%) were called active. This list was built around the results that the source calls inconclusive (neither active nor inactive); the mix of calls is not that of the screen. The call rests on the fitted dose curve; in most records, active means well fitted activation curve with a large enough effect; inconclusive means small, poorly fitted or top-dose-only effect; inactive means no such curve, though single readings can be large or run the other way. No potency is given beside an inconclusive call; the fits are too rough.
# Assay: A quantitative high throughput screen for small molecules that induce DNA re-replication in MCF 10a normal breast cells. Further: nearly all actives have a fitted effect of over 50% in size. On activity, positive = re-replication: % of control where 0% means no effect.
# Conditions: MCF 10A DNA re-replication, Hoechst nuclear intensity, 48 h; activity, positive = re-replication: at 46.1 µM (top of the series)
# Potency means the concentration at half of the fitted maximal effect; tags describe the fitted curve by direction and shape.
Structure (SMILES),Potency,"activity, positive = re-replication"
CCOc1ccc(NC(=O)CN(C)C(=O)/C=C/c2ccc(S(=O)(=O)N3CCCCCC3)cc2)cc1OCC,"inconclusive [activator, full curve, poor fit]",–
CCOC(=O)c1cc2c(ccn2C)n1CC(=O)Nc1ccc(F)cc1,"inconclusive [activator, partial curve, poor fit]",–
S=c1[nH]nc(-c2ccc3c(c2)OCO3)n1-c1ccccc1,–,inactive: -35%
N[C@@H](Cc1ccccc1)C(=O)N1CCC(C(=O)NCC(=O)Nc2ccc(F)cc2)CC1,"inconclusive [activator, single point]",–
Cc1ccc(-n2nnc3c(SCC(=O)NCC4CCCO4)ncnc32)cc1 (stereo not drawn),"inconclusive [activator, single point]",–
CCOC(=O)c1cccc(S(=O)(=O)N(CCO)Cc2cc3cc(OC)ccc3[nH]c2=O)c1,"inconclusive [activator, single point]",–
O=C(/C=C/c1ccc(F)cc1)Nc1cccc(S(=O)(=O)Nc2cccc(C(F)(F)F)c2)c1,"inconclusive [activator, single point]",–
Cc1ccc(C)c(N2CCN(C(=S)Nc3ccc4nc(N5CCN(C)CC5)cc(C)c4c3)CC2)c1,"inconclusive [activator, partial curve]",–
O=C(CCC(=O)c1ccc(Br)cc1)Nc1cccc(C(F)(F)F)c1,"inconclusive [activator, single point]",–
CCCN(Cc1cc2ccccc2[nH]c1=O)C(=O)c1cccc([N+](=O)[O-])c1,–,inactive: 7.65%
O=[N+]([O-])/C=C/c1cn(Cc2ccccc2)c2ccccc12,"inconclusive [activator, single point]",–
N#Cc1c(NC(=O)c2ccc(Cn3cc(Br)cn3)o2)sc2c1CCCCCC2,"inconclusive [activator, single point]",–
CNC(=O)c1c(NC(=O)c2ccc(S(=O)(=O)N3CCCCC3)cc2)sc2c1CCN(C(C)C)C2,–,inactive: 28.2%
Cc1ccccc1N(CC(=O)NC1CCCC1)C(=O)c1oc(C(C)(C)C)cc1C,"inconclusive [activator, single point]",–
COc1cc(OC)cc(-c2c(C#Cc3ccsc3)c3cc(-c4ccc(CN5CCOCC5)cc4)ccc3n2C)c1,"inconclusive [activator, full curve, poor fit]",–
COc1cc2nc(C3CCC3)n(NC(=O)c3ccco3)c(=O)c2cc1OC,"inconclusive [activator, single point]",–
Cc1nn(C)c(Sc2ccccc2N)c1[N+](=O)[O-],–,inactive: 2.21%
Cc1nn2c(N3CCCC3)c3c(nc2c1-c1ccccc1)CCC3,–,inactive: 7.06%
Cc1ccc(Oc2ccccc2NC(=O)CSCC(=O)Nc2cc(C)on2)cc1,"inconclusive [activator, partial curve, poor fit]",–
COc1cccc(OC)c1C(=O)Nc1ccccc1Sc1ccccc1,"inconclusive [activator, single point]",–
COc1ccc(C2(NC(C)=O)CCN(Cc3cccnc3)CC2)cc1,"inconclusive [activator, single point]",–

Structure (SMILES),Potency,"activity, positive = re-replication"
CNC(=O)c1ccc(-c2sc3nc(N4CCOCC4)c4c(c3c2N)CCCC4)o1,"inconclusive [activator, partial curve, poor fit]",–
CC(C)(C)c1cc(NC(=O)CCl)n(-c2ccccc2)n1,"inconclusive [activator, single point]",–
Cc1cccc(-c2nnc(SCC(=O)N3c4ccccc4CCc4ccccc43)n2C)c1,"inconclusive [activator, partial curve]",–
COc1ccccc1[C@@]1(C)ON(c2ccccc2C(F)(F)F)C1=O,"inconclusive [activator, single point]",–
Cc1cccc(NC(=O)CSc2nc(C3CC3)nc3ccccc23)c1,"inconclusive [activator, single point]",–
c1ccc(-c2cn3nc(-c4ccccc4)cnc3n2)cc1,–,inactive: 1.01%
CCOC(=O)c1c(C)n(-c2ccc(C)cc2)c2ccc(OCC(O)CNCCCO)cc12 (stereo not drawn),"inconclusive [activator, single point]",–
Cc1ccc(NS(=O)(=O)c2cc(C(=O)NCCSC3CCCCC3)ccc2C)cc1,"inconclusive [activator, single point]",–
COc1ccc(-c2cc(C(F)F)n3ncc(C(=O)NCC4CCCO4)c3n2)cc1 (stereo not drawn),"inconclusive [activator, partial curve, poor fit]",–
Cc1occc1C(=O)NC(C)C12CC3CC(CC(C3)C1)C2 (stereo not drawn),"inconclusive [activator, partial curve, poor fit]",–
C=C(C)COc1ccc2c(c1)CCC1C2CCC2(C)C(=O)C(=NO)CC12 (stereo not drawn),"inconclusive [activator, single point]",–
O=C(NCCCn1ccnc1)C(=O)NCC(c1ccco1)N1CCN(c2ccccc2)CC1 (stereo not drawn),"inconclusive [activator, partial curve, poor fit]",–
Cc1noc(C)c1COC(=O)c1cccc(S(=O)(=O)N2CCOCC2)c1,–,inactive: 1.64%
Cc1ccc(NC(=O)Cn2c3ccc(F)cc3c3nc4n(c(=O)c32)CCS4)cc1F,"inconclusive [activator, single point]",–
CCc1c(C)nc2c(Br)cccc2c1SCCC#N,"inconclusive [activator, partial curve, poor fit]",–
CCCNC(=O)Cn1c(=O)/c(=C/c2ccc(-c3ccc([N+](=O)[O-])cc3)o2)s/c1=C\C(=O)C(C)(C)C,active: 18.4 µM,–
Cc1ccccc1S(=O)(=O)Cc1ccc(C(=O)N2CCN(c3cccc(C)c3C)CC2)o1,active: 2.31 µM,–
COc1ccc(-c2csc(NCCc3nc4cc(Cl)c(Cl)cc4n3CCCO)n2)cc1,"inconclusive [activator, single point]",–
Cc1ccc(C)c(S(=O)(=O)NCC(=O)Nc2sc3c(c2C(N)=O)CCC(C)C3)c1 (stereo not drawn),"inconclusive [activator, partial curve, poor fit]",–
CCc1ccc(NC(=O)Cn2ncn3c(cc4ccccc43)c2=O)cc1,"inconclusive [activator, partial curve]",–
O=C(NCc1cccc(C(F)(F)F)c1)c1cccc(S(=O)(=O)NCc2ccccc2)c1,"inconclusive [activator, single point]",–

Structure (SMILES),Potency,"activity, positive = re-replication"
Cc1ccc2[nH]c(CNC(=O)C3CCCCC3)cc2c1,"inconclusive [activator, single point]",–
CCOC(=O)C1CCN(CC(C)(C)NS(=O)(=O)c2ccc(Cl)cc2)CC1,active: 14.6 µM,–
O=c1[nH]c2cc3c(cc2cc1C(c1nnnn1Cc1ccccc1)N1CCCc2ccccc21)OCO3 (stereo not drawn),active: 3.66 µM,–
CC1CCN(Cc2nnnn2-c2ccc(Cl)cc2)CC1,"inconclusive [activator, single point]",–
O=C(On1c(-c2ccccc2)nc2ccccc2c1=O)c1ccco1,"inconclusive [activator, single point]",–
Cc1ccc(Cl)cc1NC1=C/C(=N\S(=O)(=O)c2cccs2)c2ccccc2C1=O,active: 0.651 µM,–
Cc1cc2c(C)cc(=O)[nH]c2cc1NC(=O)CCl,active: 11.6 µM,–
CCCCCCCc1ccc(-c2ccc(O)cc2)nc1,"inconclusive [activator, single point]",–
COCCCNC(=S)N/N=C/c1ccc(OC)cc1,–,inactive: -13.6%
Cc1cc(N(CCO)CCO)ccc1N=Nc1cc(F)ccc1F,–,inactive: 16.8%
COc1cc(OC)cc(N(C(=O)CNC(=O)c2ccco2)C(C(=O)NCC2CCCO2)c2ccccc2)c1 (stereo not drawn),"inconclusive [activator, partial curve, poor fit]",–
COc1ccccc1-c1cc(C(=O)Nc2cc(C)n(Cc3ccc(Cl)cc3)n2)no1,"inconclusive [activator, partial curve]",–
O=[N+]([O-])c1cccc(S(=O)(=O)N2CN(c3ccc(Br)cc3)c3nc4ccccc4nc32)c1,"inconclusive [activator, single point]",–
C[C@H](CO)N1C[C@H](C)[C@@H](CN(C)Cc2ccccc2)Oc2c(NC(=O)Cc3ccccc3)cccc2C1=O,"inconclusive [activator, partial curve, poor fit]",–
COc1ccc(Cl)cc1S(=O)(=O)N1CCN(C(=O)COc2ccccc2)CC1,–,inactive: 1.26%
C=CC(=O)Nc1cccc(Nc2nc(N[C@H]3CC[C@H](N(C)C)CC3)nc3c2ncn3C(C)C)c1,"inconclusive [activator, partial curve, poor fit]",–
COc1ccsc1C(=O)Nc1ccc(F)cc1F,–,inactive: 12.8%
COc1ccccc1CC(=O)Nc1ccc(-c2noc(COc3ccc(Br)cc3)n2)cc1,"inconclusive [activator, single point]",–
CN(C)C=Nc1ncc2c3ccccc3n(CCN(C)C)c2c1C#N,"inconclusive [activator, partial curve, poor fit]",–
Cc1ccc2nc(Cl)c(/C=N/Nc3nc(C)cc(C)n3)c(=O)n2c1,"inconclusive [activator, single point]",–
Cc1ccc(/C=C/c2nc3ccccc3s2)s1,"inconclusive [activator, partial curve, poor fit]",–

# Source: PubChem BioAssay AID624296 (National Center for Advancing Translational Sciences (NCATS), 2012)
